Measured values from the supplement of paper PMC4466236.
Over roughly 33,000 sequences, “E-score (dimensionless, -0.5 to 0.5)” has its median near -0.058; the highest 2% begin near 0.35. This is one part of the list.

The sequences below were run on MvaT (assay: PBM 8-mer E-score (mean of HK and ME arrays) (E-score (dimensionless, -0.5 to 0.5)); higher = stronger relative binding preference; most listed sequences are background and not binding sites).
Method in brief: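 Full-length P. aeruginosa MvaT, with glutathione S-transferase fused to its N-terminus (cloned into pTH6838 by isothermal assembly), was tested by protein binding microarray using a previously described protocol. Two universal double-stranded 60-mer arrays (ME and HK) were used, each with a constant 25-mer primer region and a variable 35-mer region covering all 8-mers. The rank-based 8-mer E-score (-0.5 to 0.5) is the mean of the two arrays, parsed with a custom Python script.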

Sequence	PBM 8-mer E-score
ACAGTCGA	-0.137
AAAAGAAA	0.25
GCACTACC	-0.0956
CTGTTCTC	0.0149
CGCGAACC	-0.259
CGACAAAG	-0.127
AAGTTTTC	0.267
ATTCCTGC	-0.00788
GCAAACAC	0.0355
CCCTCGGC	-0.245
GAGTCTCC	-0.14
CAAATCTA	0.015
CCGCAAAC	-0.105
TACCCAAA	0.104
GGGGTGAC	-0.223
CTGAGTTC	-0.0713
CTCACTCC	-0.153
CTAAGTCC	0.0862
GCACGCGA	-0.205
CCGTCGAA	-0.0658
ACGAGGTA	-0.17
AAATATTA	0.438
ATCAATCC	-0.138
AGCATCAG	-0.14
ATAGTCCA	0.134

Sequence	PBM 8-mer E-score
CATATTTC	0.26
CCGATTGC	-0.162
CGTTCCCA	-0.168
CAACAATG	0.232
CCCCATAG	-0.0375
GTGGACAC	-0.125
CCACCGAG	-0.278
GCGCGAGC	-0.24
CTATAGGC	-0.1
CTTGAAAG	0.0824
AGCTCAAG	-0.133
ACACTATG	0.17
ACTTGTAT	0.249
GGGCAACC	-0.289
ATCACCCG	-0.161
CGATTGGC	-0.137
CTTCCCAA	-0.169
GATATAAC	0.372
GTGGGGGA	-0.164
ATTATTTG	0.351
ACCTTTCG	-0.14
CTCGTCCC	-0.183
CTCCAGCC	-0.328
TACGAGTA	0.121
GCCTAAGA	-0.18

Sequence	PBM 8-mer E-score
GAGTCCGA	-0.209
GTGACTAA	0.117
ACCCACGA	-0.126
GAGGCTGA	-0.223
ATATCTCA	0.24
GGCGAGTA	-0.0712
GGAGTCTA	-0.17
ATCCTTAA	0.0951
AAGTAAGC	0.229
CCGAGGTC	-0.133
TCTCCTCA	-0.177
AATTTGGT	0.209
ATGCTCCG	-0.0938
ACCACCCA	-0.0734
AGACTTAC	0.128
TCCCGAAA	-0.073
AGTGGTAT	0.118
AATCGCCA	-0.0398
TCAAGGAA	0.000339
AAGAGTGC	-0.0214
ACAAGTAT	0.301
ACACAACA	0.211
AATGTTTC	0.258
AATGGATG	0.0767
ACAGGTAA	0.08

Sequence	PBM 8-mer E-score
GTTCTGGA	0.0616
GGAATACC	0.104
AGAAAACC	-0.13
GCTATTAA	0.272
CCCGGTCA	-0.209
GCACATGA	-0.0727
GTTGTCAA	0.0974
ACCATTAG	-0.0308
GTAATACA	0.295
ATATTGAC	0.311
AAGCCCCT	-0.304
TCACTTAA	0.166
ACTACGGC	-0.0988
CGACGTTA	0.0202
ACTTGACA	0.149
CTCTTTAC	0.0884
GACGCGGC	-0.328
CAAGCGGC	-0.233
CGAAGGAG	-0.202
ACGAGTCG	-0.0915
CGTAACAA	0.142
ATAAACTA	0.356
ACATGGCC	-0.214
ACAACCTA	0.0166
TTGACCAA	0.0947

Sequence	PBM 8-mer E-score
ACAACCGT	-0.0347
GAGAGACC	-0.287
ACTCGAAA	0.0967
ACGTCCGC	-0.185
TACATCTA	0.223
CGCTTTAA	0.0497
AATGTCAC	0.0333
GTCTCTGA	-0.0291
ACATAGCT	0.0352
ATTCTGTC	0.0429
CACGATCC	-0.167
ATTCAGAA	0.0979
AGAGCTAC	-0.0532
CGGCACTC	-0.168
CCGAAGGA	-0.248
CTAATTAG	0.35
AGGGGCCC	-0.319
GCACAAGC	-0.143
AAATGATA	0.267
ATGTAAAT	0.327
TGATAGCA	-0.0138
CTGTCCGC	-0.266
AGCGGATG	-0.112
ATACACGG	0.065
GACTTTCA	0.0538

Sequence	PBM 8-mer E-score
GACAACCC	-0.101
CTTATGTC	0.0334
CGGTTCCC	-0.306
GGGACAAA	-0.0263
CTCCAGAC	-0.174
TAGGTTAA	0.0544
CAACCGCC	-0.215
TCCGTTAA	-0.0501
CCGTATAC	0.00619
CCGAGACA	-0.0391
ATCCGGTG	-0.108
CATGGCCC	-0.251
AAGCGCTT	-0.0764
CTATAGCC	-0.168
CGGTGCAC	-0.121
ACTATTCA	0.184
CCAGGTAC	-0.0781
AACCTGCC	-0.176
CGGAGAAA	-0.077
CAGCAGAC	-0.159
CAGCGCCG	-0.354
CCCCTTCG	-0.28
GCACATAA	0.154
CCAGGTAA	-0.0204
AACTAATA	0.323

Sequence	PBM 8-mer E-score
CCGTGTCC	-0.297
ACGTATCA	0.0348
AGATCAAG	-0.0606
AAGGTTCG	-0.0294
GTTGGCAA	0.021
TAGAGTAA	0.18
CAAAGTCC	-0.13
TATGTGAA	0.276
GCCTAACC	-0.244
CGCTAGGA	-0.172
ACCTGCGT	-0.176
CGCATACG	-0.0218
CCTTAAGG	0.069
ATCAGTCC	-0.268
GGGTTGAA	0.026
GTGGCCAA	-0.191
GGCCTTTA	-0.108
GAAGTAGC	-0.0327
AACCACAT	0.00645
GATGGGGA	-0.11
ACAAAAGT	0.217
TAAAGGCA	0.122
AAGGGACG	-0.209
GGGAATCA	-0.0887
CAAAGCCG	-0.0804

Sequence	PBM 8-mer E-score
ACAAAATC	0.166
ACTTGATG	-0.0563
CGAGTAGA	-0.159
ACGGGAGC	-0.235
CACAGCAG	-0.158
ATAAGGAC	0.0678
CAACGGTA	-0.182
ACACGTGC	-0.0817
ATTATCAC	0.24
TATCTTAA	0.31
AATACGTA	0.319
CCAGATGA	-0.0506
TAGGTCCA	-0.154
CTGCGTAC	-0.173
CCCAAGCC	-0.279
AATCGATT	0.162
CAGCCACA	-0.253
CTGGCACC	-0.229
CATGAACG	-0.0794
AGTCTCAC	0.0524
GGGGGCGA	-0.254
GCGAAACC	-0.227
ACGGGTAA	0.0679
CAGCTTGG	-0.212
GCATGGCA	-0.197

Sequence	PBM 8-mer E-score
CACCGCAC	-0.0892
CCGAGAGC	-0.196
CTAACCTC	-0.159
AGGCCCAT	-0.0843
GAGGCCCC	-0.199
AAAGGAAC	-0.147
GCGCCCAA	-0.198
TCTATAGA	0.0846
AAAGGTTA	0.164
ACCGCCGC	-0.24
ATTAGCAA	0.203
AAAAGCAG	0.0803
GGTGATAC	-0.0312
ACCGCGTC	-0.142
TATCGTAA	0.215
GGACGAAC	-0.182
CCGAATAC	0.0428
AAATAATG	0.387
CGTTGTAA	0.174
GTAAGATA	0.175
ACCCTGGC	-0.236
ATATGGTA	0.316
AACGTAGT	0.000134
CACATTGA	0.14
GCTAAGCA	-0.164

Sequence	PBM 8-mer E-score
ACTACATC	0.0407
CTCGTCAC	-0.132
GATCACAA	-0.15
ATATACAA	0.406
TATCAAAA	0.175
CCAAGCAC	-0.264
GCCCGAGA	-0.255
CAACTTTA	0.297
GAAACGGC	-0.049
ACGATCGT	-0.191
AGAACCAC	-0.13
GTGTGTAA	0.161
AAGGCCAT	-0.165
CTGCGCAC	-0.202
CCTCTTGA	-0.245
GGCCTGTA	-0.095
GTGGGGAA	-0.0945
GCGAAACA	0.0733
ACCATTGC	-0.0183
CGAGTTAC	-0.0919
GGTGTTAA	0.149
GCCGGTCA	-0.0733
ATCATGCA	0.0287
CTCAATTC	-0.0532
CTCACGAG	-0.189

Sequence	PBM 8-mer E-score
AGAGGTTC	-0.178
AAATACCG	0.271
CACGTCCC	-0.212
AGGTTGAA	-0.0276
AAGAGCTG	-0.0947
TGTAGGAA	-0.103
ATGTCCTA	-0.0549
ACATCCCT	-0.0651
CCGAAATA	0.28
CCTGTTTC	-0.0821
ATTGAAAG	0.195
AGCAGTCA	0.00122
TTATAGAA	0.2
CGCCACAG	-0.231
AGGCCCAA	-0.263
TATCCATA	0.185
CCTGCAGC	-0.193
CCGTTACA	0.0795
GCCGCATA	0.0601
AAACCGTG	-0.0885
ACTTTTGG	0.076
TATCGGGA	0.0691
AGTTAGTG	0.15
AAATAGAT	0.235
TGCCAACA	-0.0277

Sequence	PBM 8-mer E-score
ATTGACCC	-0.143
ACGGCGCT	-0.175
ACTTAAGG	0.113
ATAGGTGG	-0.0932
ACTCAACG	-0.157
ACCCCAAA	-0.0921
CCTAAATA	0.226
AGCACCTC	-0.245
GGCTCATA	-0.0439
CATTCCGA	-0.0359
CTGATAGC	-0.222
GGGGCCCA	-0.279
CAAATCAG	0.0407
TACGACGA	-0.0432
CTCCCAAA	-0.00676
AAGATCTG	-0.0201
CGCATCAA	0.0181
AAAATGGT	-0.0747
AAACAAAC	0.14
AACAAGGG	-0.0513
ATATTTCA	0.329
CGGTCTTC	-0.198
GTGATCGA	-0.0688
GGAGTATA	0.21
GACCTCCA	-0.289

Sequence	PBM 8-mer E-score
TCCGGCGA	-0.136
CCGGACAA	-0.15
AACGCGGC	-0.231
GTCCCTTA	-0.116
ATTGGCCA	-0.109
TGGTGCAA	0.0798
ATGAATGA	0.111
GGAAAGCC	-0.217
CCCATGAG	-0.0838
GAAGATGA	-0.128
ACCGTACA	-0.106
GAGAGCTA	-0.172
AACGACGA	0.0654
CTGACTAC	-0.0474
ACTAAACG	0.124
GTACGCCA	-0.164
CTCTATAA	0.081
ATAAGCAC	0.159
CATATAGG	0.151
TACTGACA	0.103
ACTGTGAT	0.052
ACCGGCGA	-0.107
ACATCATC	0.0491
CTGGGTGC	-0.149
GGCCAATA	0.161

Sequence	PBM 8-mer E-score
AAACTATC	0.301
CTCGTAGA	-0.166
AGCTTACA	0.0039
CGATTCCG	-0.0824
AAACCAGC	0.0746
GAAGTGGA	0.032
TAGCGGCA	0.0311
GGGAGGAA	-0.237
AGCCCTGA	-0.234
AGGAATCA	-0.0493
GTTGTGTA	0.176
AATTCTAT	0.185
CCTTTGCG	-0.261
ACTGAATC	0.0223
GAGTCGTA	-0.0812
GGCCCGTA	-0.161
AGGAACCA	0.0478
CCAATCAC	-0.0994
TCTAACAA	0.105
